{"source": "PubChem BioAssay AID2675", "about": "(National Center for Advancing Translational Sciences (NCATS), 2010)", "note": "Among all 280,000 compounds or so, about 100 (0.036%) were called active. This list was built around the results that the source calls inconclusive (neither active nor inactive); the mix of calls is not that of the screen. The call rests on the fitted dose curve; in most records, active means well fitted inhibition curve with a large enough effect in the signal ratio, with a control signal flat (not every such curve was filed as active); inconclusive means small, poorly fitted or top-dose-only effect, or effect the other way, or a change in a side signal; inactive means no such curve, though single readings can be large or run the other way; the % refers to the signal ratio. A potency beside an inconclusive call is a rough fit, not a confirmed value. “Side channel” marks fits to a control or component signal instead of the main read-out. On the % scale 0 is the no-effect control and ±100 the full control effect; potency means the concentration at half of the fitted maximal effect; tags describe the fitted curve by direction and shape or compound fluorescence and quenching.", "data": [{"target": "Muscleblind-like protein 1 (Homo sapiens) (UniProt Q9NR56)", "sequence (Q9NR56 whole entry, looked up)": "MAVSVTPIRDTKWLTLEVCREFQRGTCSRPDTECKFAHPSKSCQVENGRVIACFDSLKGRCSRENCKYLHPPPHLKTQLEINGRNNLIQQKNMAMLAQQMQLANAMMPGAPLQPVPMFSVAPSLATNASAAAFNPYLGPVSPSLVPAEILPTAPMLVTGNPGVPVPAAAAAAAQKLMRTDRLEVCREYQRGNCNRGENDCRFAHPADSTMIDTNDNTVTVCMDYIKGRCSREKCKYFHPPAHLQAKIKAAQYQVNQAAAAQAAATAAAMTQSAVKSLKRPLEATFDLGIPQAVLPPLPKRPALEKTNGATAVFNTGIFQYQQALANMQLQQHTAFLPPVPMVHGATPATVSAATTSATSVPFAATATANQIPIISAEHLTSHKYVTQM", "assay": "qHTS Assay for Inhibitors of MBNL1-poly(CUG) RNA binding", "details": "TR-FRET MBNL1-His/biotin-(CUG)12 binding, 665/545 ratio; activity change, negative = inhibition: at 57.5 µM (top of the series)", "how_it_was_run": "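Compounds (final 92 nM to 58 uM) are added to His-tagged MBNL1 and biotin-(CUG)12, then terbium anti-His antibody and streptavidin-XL665 (5 nM final). After 60 min at room temperature, the 665/545 nm ratio is read.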", "values": [{"smiles": "O=C(N/N=C/c1cc(Cl)c(O)c(Cl)c1)c1cc2c(ccc3ccccc32)o1", "Potency": "inconclusive: 22.4 µM [quencher, partial curve]"}, {"smiles": "O=S(=O)(Nc1ccc(C(F)(F)F)cc1)c1cnc[nH]1", "activity change, negative = inhibition": "inactive: -7.52%"}, {"smiles": "O=C(O)c1ccc2c(c1)C(=O)N(c1cccc3ccccc13)C2=O", "Potency": "inconclusive: 17.8 µM [quencher, partial curve]"}, {"smiles": "CC(C)c1ccccc1NC(=S)NCCCn1ccnc1", "activity change, negative = inhibition": "inactive: -4.17%"}, {"smiles": "O=[N+]([O-])c1cc(S(=O)(=O)N2CCCC2)ccc1N/N=C/c1ccccn1", "Potency": "inconclusive: 39.8 µM [quencher, side channel, single point]"}, {"smiles": "O=[N+]([O-])c1ccc(Nc2ccccc2)nc1", "Potency": "inconclusive: 15.8 µM [activator, partial curve]"}, {"smiles": "O=S(=O)(c1ccc(-c2ccno2)s1)N1CCCCC1", "Potency": "inconclusive: 14.1 µM [quencher, side channel, partial curve]"}, {"smiles": "O=C(NC1CCCC1)C(c1ccccc1)N(C(=O)c1csnn1)c1ccccc1F", "note": "(stereo not given)", "activity change, negative = inhibition": "inactive: -1%"}, {"smiles": "COc1ccccc1CNC(=O)COc1ccc([N+](=O)[O-])cc1", "Potency": "inconclusive: 22.4 µM [quencher, side channel, single point]"}, {"smiles": "COc1ccc(OCC(=O)Nc2c(C)ccc3nsnc23)cc1", "Potency": "inconclusive: 28.2 µM [quencher, side channel, partial curve]"}, {"smiles": "CC1=CC2=NC(=O)/C(=C\\c3cccn3CCOc3ccccc3)C(=N)N2O1", "Potency": "inconclusive: 25.1 µM [quencher, side channel, partial curve, poor fit]"}, {"smiles": "Cc1c(Cc2ccccc2)sc(/N=C/c2ccc3ccccc3c2)c1C(N)=O", "Potency": "inconclusive: 8.91 µM [fluorescent, side channel, single point]"}, {"smiles": "CC(C)c1[nH]nc2c1C(c1ccc(OC(=O)c3ccco3)cc1)C(C#N)=C(N)O2", "note": "(stereo not given)", "Potency": "inconclusive: 0.158 µM [quencher, side channel, full curve, poor fit]"}, {"smiles": "Cn1cnc2ccc([N+](=O)[O-])cc2c1=O", "Potency": "inconclusive: 3.55 µM [quencher, side channel, partial curve]"}, {"smiles": "COc1cc(/C=C/c2ccc3cccc(OC)c3n2)c(OC(C)=O)c([N+](=O)[O-])c1", "Potency": "inconclusive: 10 µM [quencher, side channel, partial curve]"}, {"smiles": "N/C(=N\\OC(=O)c1ccc2ccccc2c1)c1ccncc1", "Potency": "inconclusive: 31.6 µM [quencher, side channel, partial curve]"}, {"smiles": "N#Cc1ccc(-c2csc(NC(=O)c3ccc(S(=O)(=O)N4CCc5ccccc5C4)cc3)n2)cc1", "activity change, negative = inhibition": "inactive: -5.36%"}, {"smiles": "CC(C)(C)c1cc(C(=O)NCC(=O)OCC(=O)c2cccc([N+](=O)[O-])c2)cc(C(C)(C)C)c1", "Potency": "inconclusive: 4.47 µM [quencher, side channel, full curve, poor fit]"}, {"smiles": "O=C(COc1cc2oc(=O)c3c(c2cc1Cl)CCC3)NCC1CCC(C(=O)O)CC1", "note": "(stereo not given)", "activity change, negative = inhibition": "inactive: -5.78%"}, {"smiles": "O=C(Cc1cccs1)N1CCN(S(=O)(=O)c2cccc([N+](=O)[O-])c2)CC1", "Potency": "inconclusive: 2.82 µM [quencher, side channel, single point]"}, {"smiles": "CN(C)/C=C1\\N=C(c2cccs2)OC1=O", "Potency": "inconclusive: 39.8 µM [quencher, side channel, single point]"}, {"smiles": "CCN(CC)S(=O)(=O)c1cc(NC(=O)c2ccc(Br)s2)ccc1C", "Potency": "inconclusive: 25.1 µM [fluorescent, side channel, partial curve]"}, {"smiles": "COC(=O)Nc1ccc([N+](=O)[O-])cc1OC", "Potency": "inconclusive: 14.1 µM [quencher, side channel, single point]"}, {"smiles": "Cc1ccc(NC(=S)NNC(=O)c2nn(C)cc2Cl)cc1", "activity change, negative = inhibition": "inactive: -3.08%"}, {"smiles": "C=CCNC(=O)/C(=C\\c1ccc([N+](=O)[O-])cc1)NC(C)=O", "Potency": "inconclusive: 14.1 µM [quencher, side channel, partial curve]"}, {"smiles": "Cc1cc(SCc2ccccc2F)nc(=O)[nH]1", "activity change, negative = inhibition": "inactive: -6.15%"}, {"smiles": "N#C/C(=N\\Nc1c(Cl)cccc1Cl)C(=O)NN", "Potency": "inconclusive: 25.1 µM [quencher, side channel, partial curve]"}, {"smiles": "C=CCNC1=C(Cl)C(=O)c2ccccc2C1=O", "Potency": "inconclusive: 6.31 µM [quencher, side channel, partial curve]"}, {"smiles": "CC[C@@H](C)[C@@H](C(=O)N1CCN(C(=O)OC(C)(C)C)CC1)n1cc(CCCCNC(=O)OC(C)(C)C)nn1", "activity change, negative = inhibition": "inactive: 9.38%"}, {"smiles": "CO/N=C/C(C#N)=C/c1ccc(OC)c(OC)c1", "Potency": "inconclusive: 15.8 µM [quencher, side channel, partial curve]"}, {"smiles": "O=C(Oc1ccc(F)cc1C(=O)/C=C/c1cccs1)c1cccc([N+](=O)[O-])c1", "Potency": "inconclusive: 20 µM [quencher, side channel, partial curve]"}, {"smiles": "CC(=O)Nc1ccccc1-c1nc2ccc(C(=O)N3CCN(c4ccccc4)CC3)cc2[nH]c1=O", "activity change, negative = inhibition": "inconclusive: 9.39% [phenotype inactive]"}, {"smiles": "O=C(O)c1ccc2c3c(cccc13)C(=O)N(c1ccccc1)C2=O", "Potency": "inconclusive: 12.6 µM [quencher, partial curve]"}, {"smiles": "c1ccc(NCc2cccc3ccccc23)nc1", "Potency": "inconclusive: 79.4 µM [inhibitor, single point]"}, {"smiles": "NC(=O)CC(NC(=O)Cc1ccc(Cl)cc1)c1ccc(NC2CC3CCC2C3)c([N+](=O)[O-])c1", "note": "(stereo not given)", "Potency": "inconclusive: 28.2 µM [quencher, side channel, single point]"}, {"smiles": "Cc1cc(C(=O)Nc2ccc(N3CCOCC3)c3nonc23)ccc1[N+](=O)[O-]", "activity change, negative = inhibition": "inactive: 24.9%"}, {"smiles": "CC(C)n1cc(/C=N/NC(=O)COc2cccc3cccnc23)c2ccccc21", "activity change, negative = inhibition": "inactive: 0.156%"}, {"smiles": "Cc1ccc(NC(=O)c2cc(S(=O)(=O)N3CCOCC3)cs2)cc1", "activity change, negative = inhibition": "inactive: -8.35%"}, {"smiles": "O=C(CNCC1CCCCC1)Nc1ccc(N2CCCCC2)cc1", "activity change, negative = inhibition": "inactive: -0.982%"}, {"smiles": "O=C(Cn1nnc2ccccc2c1=O)NCc1ccc(Cl)cc1", "Potency": "inconclusive: 10 µM [quencher, side channel, partial curve]"}]}]}
